# Assay results taken from PubChem BioAssay AID588342 (National Center for Advancing Translational Sciences (NCATS), 2011).
# The whole screen tested about 360,000 compounds, of which about 25,000 (6.9%) were called active. Inconclusive means that the source gave no clear call. Such entries were picked first, then a sample of the others. Calls follow the shape of the dose curve; as a rule, active = well fitted inhibition curve with a large enough effect; inconclusive = small, poorly fitted or top-dose-only effect; inactive = flat fitted curve, though single readings scatter. Potencies beside an inconclusive call are fits to weak or partial responses and may not hold up.
# Target: Luciferin 4-monooxygenase (Photinus pyralis) (UniProt P08659)
# UniProt P08659, sequence (P08659 whole entry, looked up): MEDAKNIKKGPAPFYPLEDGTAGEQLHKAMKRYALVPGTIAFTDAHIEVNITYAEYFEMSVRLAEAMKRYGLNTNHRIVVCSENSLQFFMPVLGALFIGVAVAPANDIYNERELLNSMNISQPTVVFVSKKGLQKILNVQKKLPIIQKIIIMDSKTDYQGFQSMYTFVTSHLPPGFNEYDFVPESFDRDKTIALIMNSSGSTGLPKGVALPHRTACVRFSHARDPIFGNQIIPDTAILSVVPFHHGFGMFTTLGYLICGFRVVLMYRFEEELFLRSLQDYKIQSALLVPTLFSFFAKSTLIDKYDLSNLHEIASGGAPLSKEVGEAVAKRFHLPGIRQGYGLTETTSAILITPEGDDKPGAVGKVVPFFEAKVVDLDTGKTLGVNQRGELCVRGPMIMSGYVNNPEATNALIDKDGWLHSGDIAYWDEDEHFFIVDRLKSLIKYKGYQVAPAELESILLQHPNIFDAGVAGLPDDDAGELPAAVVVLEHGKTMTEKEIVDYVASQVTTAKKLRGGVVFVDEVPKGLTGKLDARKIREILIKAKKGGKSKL
# Assay: qHTS profiling assay for firefly luciferase inhibitor/activator using purifed enzyme and Km concentrations of substrates (counterscreen for miR-21 project); also: nearly all actives have a fitted effect of over 55% in size;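 as to activity change, negative = inhibition: plate controls were vehicle for no effect and reference inhibitor for full effect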
# Settings: purified FLuc, luminescence inhibition; series mostly up to 57.5 µM; activity change, negative = inhibition: at the top concentration
# Procedure, shortened: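 Biochemical qHTS of compounds, final roughly 60 µM downward over six points, against 10 nM purified firefly luciferase using Km concentrations of substrates (10 uM D-luciferin, 10 uM ATP) in Tris acetate pH 7.5 buffer; luminescence output.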
# Potency is read from the fitted curve at half-maximal effect; tags tell the direction and shape of the fitted curve.
Structure (SMILES),Potency,"activity change, negative = inhibition"
COc1ccc2nc(NC(=O)CCN3C(=O)c4ccccc4C3=O)sc2c1,"inconclusive: 37.9 µM [inhibitor, partial curve, poor fit]",
CCNC(=S)NNC(=O)c1cc(-c2cccc(C)c2)nc2ccccc12,active: 0.338 µM,
NC(=O)COC(=O)C12CC3CC(CC(O)(C3)C1)C2,,inactive: 0.0415%
CCn1nc(NS(=O)(=O)c2ccc([N+](=O)[O-])cc2)c2cc3ccc(C)cc3nc21,"inconclusive: 23.9 µM [inhibitor, single point]",
COc1ccccc1-c1nc(SCc2ccccn2)n[nH]1,"inconclusive: 21.3 µM [inhibitor, partial curve]",
O=C(CSc1nc2ccccc2c(=O)n1Cc1ccco1)c1ccc(F)cc1,"inconclusive: 30.1 µM [inhibitor, partial curve, poor fit]",
Cc1cn2c(=O)cc(COc3ccc(NC(=O)c4ccccc4C)cc3)nc2s1,,inactive: 1.51%
COc1ccc(Cl)cc1C(=O)Nc1nc(C)cc(C)n1,,inactive: -4.72%
Cc1ccc(NC(=O)c2ocnc2C)cc1Cl,active: 12 µM,
COc1ccccc1N/N=C1\COC(C)(C)CC1=O,"inconclusive: 37.9 µM [inhibitor, single point]",
COc1ccc(S(=O)(=O)N[C@@H](CSCc2ccccc2)C(=O)O)cc1,,inactive: 1.23%
O=S(=O)(Nc1nc2ccccc2nc1NCCO)c1cccc(Cl)c1,,inactive: 0.617%
COc1cc(/C=C(\C#N)C(=O)N2CCCCC2)ccc1O,,inactive: -6.75%
CC(=O)Nc1cccc(C(=O)OCCCOc2ccc(F)cc2)c1,"inconclusive: 23.9 µM [inhibitor, partial curve]",
COc1cc(-c2noc(-c3ccc(NCc4ccco4)c([N+](=O)[O-])c3)n2)cc(OC)c1OC,"inconclusive: 5.36 µM [inhibitor, partial curve, poor fit]",
COc1ccc2c(c1OC)C(=O)N(c1nccs1)C2,active: 15.1 µM,
CC1CCC(C(C)C)C(OC(=O)Cn2c(-c3ccc(Br)cc3)[n+](C)c3ccccc32)C1 (stereo not given),"inconclusive: 0.0107 µM [inhibitor, partial curve, poor fit]",
O=C(COC(=O)c1ccc(Cl)s1)c1ccc[nH]1,"inconclusive: 19 µM [inhibitor, partial curve]",
O=C(NCC1CCCN(C(=O)NCc2ccccc2)C1)c1ccc2c(c1)OCO2 (stereo not given),"inconclusive: 23.9 µM [inhibitor, single point]",
O=C(COC(=O)CNC(=O)c1ccccc1)Nc1nc(-c2ccccc2)cs1,"inconclusive: 30.1 µM [inhibitor, partial curve, poor fit]",
CCN(CC)S(=O)(=O)c1ccc(OC)c(NC(=O)CC2CCCC2)c1,,inactive: 2.26%
c1ccc(-n2ncc3c(NCC4CCCO4)ncnc32)cc1 (stereo not given),active: 16.9 µM,
Nc1c2c(nc3ccccc13)N(c1ccccc1)CC2,"inconclusive: 26.9 µM [inhibitor, partial curve, poor fit]",
CC(=O)c1ccc(N2Cc3ccccc3C3(CCOCC3)C2=N)cc1,"inconclusive: 37.9 µM [inhibitor, partial curve, poor fit]",
CCOc1cccc2cc(-c3cn4cc(C)ccc4n3)c(=O)oc12,active: 0.12 µM,

Structure (SMILES),Potency,"activity change, negative = inhibition"
Cc1ccccc1OCC(=O)NC1CCCCCCC1,"inconclusive: 23.9 µM [inhibitor, single point]",
Clc1ccc(CN(Cc2ccc(Cl)cc2)c2nn[nH]n2)cc1,"inconclusive: 19 µM [inhibitor, partial curve]",
COc1ccc(Cn2nc(-c3ccccc3)c(N3CCCCC3)cc2=O)cc1,"inconclusive: 37.9 µM [inhibitor, partial curve, poor fit]",
COc1cc([N+](=O)[O-])ccc1NC(=O)CSc1ccccn1,"inconclusive: 37.9 µM [inhibitor, partial curve, poor fit]",
COc1ccc(CNC(=O)c2ccc(NC(=O)CC3SC(N4CCCCC4)=NC3=O)cc2)cc1 (stereo not given),"inconclusive: 37.9 µM [inhibitor, single point]",
CCC(C(=O)O/N=C(\N)c1cccc(C)c1)c1ccccc1 (stereo not given),"inconclusive: 26.9 µM [inhibitor, partial curve, poor fit]",
CCC(=O)N1CCc2cc(Br)cc(S(=O)(=O)N3CCC(C(=O)Nc4ccccc4CC)CC3)c21,,inactive: 2.71%
CCC1CCCCN1C(=O)CSc1nnc(-c2cccs2)o1 (stereo not given),active: 16.9 µM,
Cc1ccc(-c2nc3cc(Cl)ccc3o2)cc1NC(=O)c1cc([N+](=O)[O-])ccc1N1CCOCC1,"inconclusive: 8.49 µM [inhibitor, partial curve]",
CC(=O)Oc1ccc2cc(-c3nc4ccccc4n3C)c(=O)oc2c1,"inconclusive: 10.7 µM [inhibitor, partial curve, poor fit]",
COc1ccc2nc(NC(=O)Nc3ccccc3)sc2c1,active: 0.478 µM,
CCCC(=O)OCC(=O)Nc1ccc2c(c1)OCO2,"inconclusive: 33.8 µM [inhibitor, single point]",
O=C(Nc1ccncc1)c1ccc(Br)cc1,"inconclusive: 33.8 µM [inhibitor, partial curve, poor fit]",
COCCn1c(-c2ccc3ccccc3c2)nc2c1c(=O)[nH]c(=O)n2CC(C)C,,inactive: -1.58%
c1ccc(NC2=Nc3cccc4cccc2c34)cc1,active: 15.1 µM,
CCOC(=O)CSc1nc(C2CC2)nc2ccccc12,"inconclusive: 30.1 µM [inhibitor, single point]",
COc1ccc(CCNC(=O)CCCc2ccccc2)cc1OC,,inactive: -0.249%
N#CC(c1ccncc1)(c1ncc(C(F)(F)F)cc1Cl)N1CCOCC1 (stereo not given),"inconclusive: 37.9 µM [inhibitor, partial curve, poor fit]",
CC(=O)Nc1ccc2ccccc2c1,"inconclusive: 37.9 µM [inhibitor, partial curve, poor fit]",
CCCOc1ccc(/C=N/Nc2ccccc2[N+](=O)[O-])c(O)c1,active: 0.107 µM,
Cc1cc(/C=N/NC(=O)c2ccc(O)cc2)c(C)n1C1CC1,"inconclusive: 19 µM [inhibitor, partial curve]",
O=C(Nc1cccc(Cl)c1)c1ccc2nc(CCc3ccccc3)oc2c1,"inconclusive: 33.8 µM [inhibitor, partial curve, poor fit]",
Cc1cc(C(=O)NC2=NCCS2)cs1,active: 8.49 µM,
Cc1cccc(C(=O)NNC(=O)c2ccc(Br)cc2)c1,,inactive: -13.4%
CC1CCCC(NC(=O)c2ccc3c(SCC(=O)O)c4c(nc3c2)CCC4)C1C (stereo not given),active: 16.9 µM,

Structure (SMILES),Potency,"activity change, negative = inhibition"
Cc1ccc(C2=Nc3ccccc3N(CC(=O)Nc3ccccc3F)C(=O)C2)cc1C,"inconclusive: 13.5 µM [inhibitor, partial curve]",
CC(=O)N1CCN(C(=O)c2ccc(C(=O)c3ccccc3)cc2)CC1,,inactive: 1.48%
CCCn1c(C)cc(C(=O)CN2C(=O)c3cccc(N)c3C2=O)c1C,active: 2.69 µM,
CCOC(=O)Nc1ccc(C(=O)c2ccncc2)cc1,,inactive: -15.1%
Cc1cccc(-n2cc(CN(C)Cc3nccn3C)c(-c3cccc(F)c3)n2)c1,"inconclusive: 26.9 µM [inhibitor, partial curve, poor fit]",
CNC(=S)N/N=C(\C)c1ccc2c(c1)OCCO2,"inconclusive: 37.9 µM [inhibitor, partial curve, poor fit]",
Cc1ccc(OCC(=O)N/N=C/c2cccn2C)cc1,"inconclusive: 19 µM [inhibitor, partial curve]",
CCOc1ccc2nc(NC(=O)C3CCCN(S(=O)(=O)c4c(C)noc4C)C3)sc2c1 (stereo not given),"inconclusive: 23.9 µM [inhibitor, partial curve]",
CC(=O)c1ccc(NC(=O)C(Cc2ccccc2)n2cccc2)cc1 (stereo not given),"inconclusive: 37.9 µM [inhibitor, partial curve, poor fit]",
C=CS(=O)(=O)c1ccc(Oc2ccc(S(=O)(=O)C=C)cc2)cc1,,inactive: 0.286%
COc1ccc(C(=S)N2CCOCC2)cc1OC(=O)c1ccc(C)cc1,,inactive: 2.62%
c1ccc(OCc2nc(-c3cccs3)no2)cc1,active: 7.57 µM,
CCC[n+]1c(C)sc2c(OC)ccc(OC)c21,,inactive: -3.88%
COC(=O)c1ccc(CSc2nc3ccccc3[nH]2)o1,"inconclusive: 23.9 µM [inhibitor, single point]",
N#Cc1c(-c2cccnc2)c2c([nH]c1=S)CCCC2,"inconclusive: 37.9 µM [inhibitor, partial curve, poor fit]",
COc1ccc(NC(=O)CCC(=O)OCc2ccc(C(=O)Oc3ccc(Cl)cc3)cc2)cc1,"inconclusive: 3.01 µM [inhibitor, partial curve, poor fit]",
Cc1nn(-c2ccccc2)c(N)c1N=Nc1ccccc1,active: 6.75 µM,
Cc1cccnc1NC(=O)Nc1ccc(F)cc1,"inconclusive: 6.75 µM [inhibitor, full curve]",
CCOC(=O)c1ccc(NC(=O)Cc2cccs2)cc1,active: 15.1 µM,
Cn1ncc(Cl)c1C(=O)NCC1CCCO1 (stereo not given),,inactive: 3.68%
CCn1c(C)nc2cc(C(=O)N/N=C/c3cccc(OC)c3O)ccc21,"inconclusive: 19 µM [inhibitor, partial curve]",
O=C(Nc1cccnc1)c1cc(-c2cc(Cl)ccc2O)n[nH]1,active: 2.39 µM,
CCOc1ccc(CNC(=O)c2cccc(NC(=O)N3CCSc4ncccc43)c2)cc1,,inactive: 3.43%
Oc1ccc(Br)cc1-c1cc(-c2ccc(Cl)cc2)n[nH]1,"inconclusive: 30.1 µM [inhibitor, partial curve, poor fit]",
C=CCOc1ccc(Br)cc1/C=C1/SC(=Nc2ccc(C(=O)O)cc2)NC1=O,"inconclusive: 21.3 µM [inhibitor, single point]",
